Assay results published in the supplement of paper PMC6609913.
Where a name gives a salt, the structure may show the parent alone. ± gives the standard deviation of the averaged measurements. Over roughly 1,300 compounds, “normalised cell viability” has its median near 1; the lowest 2% begin near 0.14. This is one part of the list.

Tested on: V-C8 (BRCA2-deficient hamster cells)
Assay: normalised cell viability (fraction of plate median); higher = more viable cells (less toxic)
Conditions: 5 µM
Outline: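 BRCA2-deficient hamster V-C8 cells and BRCA2-restored V-C8 cells were plated in 96-well plates, and library drugs were added 24 h later at 5 μM in 100 μl medium. Exposure lasted 3 days in screen 1 and 6 days in screen 2, next to solvent-only wells. Viability was then read by resazurin assay, median-plate normalised and averaged across triplicate wells.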

| SMILES | normalised cell viability (treatment time: 3 days) | normalised cell viability (treatment time: 6 days) |
| --- | --- | --- |
| C[C@H]1[C@H](NC(=O)/C(=N\OC(C)(C)C(=O)O)c2csc(N)n2)C(=O)N1S(=O)(=O)O [Aztreonam] | 0.984 ± 0.057 | 1.02 ± 0.012 |
| Cc1c(Cl)cccc1Nc1ncccc1C(=O)O [Clonixin Lysinate] | 1.03 ± 0.052 | 0.997 ± 0.057 |
| Cc1ccc(/C(=C\CN2CCCC2)c2ccccn2)cc1 [Triprolidine hydrochloride] | 1.14 ± 0.029 | 1.07 ± 0.044 |
| CC(C)(O/N=C(\C(=O)N[C@@H]1C(=O)N2C(C(=O)[O-])=C(C[n+]3ccccc3)CS[C@H]12)c1csc(N)n1)C(=O)O [Ceftazidime pentahydrate] | 0.989 ± 0.013 | 1.05 ± 0.023 |
| O=C1C=CC(=O)c2c1ccc1c2ccc2ccccc21 [Chrysene-1,4-quinone] | 1.02 ± 0.061 | 1.06 ± 0.12 |
| CN1CCN(C(c2ccccc2)c2ccc(Cl)cc2)CC1 (stereo not drawn) [Chlorcyclizine hydrochloride] | 0.947 ± 0.019 | 0.979 ± 0.073 |
| O=C(N/N=C/c1ccc([N+](=O)[O-])o1)c1ccc(O)cc1 [Nifuroxazide] | 0.41 ± 0.027 | 0.451 ± 0.024 |
| CN(N=O)C(=O)N[C@@H](C=O)[C@@H](O)[C@H](O)[C@H](O)CO [Streptozotocin] | 1.1 ± 0.021 | 1.09 ± 0.042 |
| CCC(=O)[C@@]1(C)[C@H](C)C[C@H]2[C@@H]3CCC4=CC(=O)C=C[C@]4(C)[C@H]3[C@@H](O)C[C@@]21C [Rimexolone] | 1.06 ± 0.05 | 0.935 ± 0.069 |
| CC(=O)Nc1c(I)c(NC(C)=O)c(I)c(C(=O)O)c1I [Diatrizoic acid dihydrate] | 1.03 ± 0.029 | 0.989 ± 0.061 |
| CCc1cc(C(N)=S)ccn1 [Ethionamide] | 1.09 ± 0.029 | 1.03 ± 0.03 |
| CC(C)N1CCN(c2ccc(OCC3COC(Cn4cncn4)(c4ccc(Cl)cc4Cl)O3)cc2)CC1 (stereo not drawn) [Terconazole] | 1.09 ± 0.049 | 1.08 ± 0.056 |
| CN1C2CCCC1CC(NC(=O)c1nn(C)c3ccccc13)C2 (stereo not drawn) [Granisetron] | 0.973 ± 0.092 | 1.03 ± 0.051 |
| Cc1ncc([N+](=O)[O-])n1CCO [Metronidazole] | 0.914 ± 0.088 | 1.04 ± 0.058 |
| CCN(CC)CC#CCOC(=O)C(O)(c1ccccc1)C1CCCCC1 (stereo not drawn) [Oxybutynin chloride] | 1.02 ± 0.018 | 1.03 ± 0.059 |
| OC(CCN1CCCCC1)(c1ccccc1)C1CC2C=CC1C2 (stereo not drawn) [Biperiden hydrochloride] | 1.02 ± 0.029 | 0.999 ± 0.014 |
| O=C(NCCNCC(O)COc1ccc(O)cc1)N1CCOCC1 (stereo not drawn) [Xamoterol hemifumarate] | 1.03 ± 0.056 | 0.991 ± 0.037 |

| SMILES | normalised cell viability (treatment time: 3 days) | normalised cell viability (treatment time: 6 days) |
| --- | --- | --- |
| CN(C)CCOC1=Cc2ccccc2Sc2ccc(Cl)cc21 [Zotepine] | 0.449 ± 0.066 | 0.616 ± 0.076 |
| CCN(Cc1ccncc1)C(=O)C(CO)c1ccccc1 (stereo not drawn) [Tropicamide] | 1 ± 0.028 | 0.995 ± 0.087 |
| COc1ccc(C(=O)NCc2cccnc2)cc1C(=O)NCc1cccnc1 [Picotamide monohydrate] | 1.09 ± 0.07 | 1.04 ± 0.054 |
| NC[C@H]1O[C@H](O[C@H]2[C@H](O[C@@H]3O[C@H](CO)[C@@H](O)[C@H]3O)[C@@H](O)[C@H](N)C[C@@H]2N)[C@H](N)[C@@H](O)[C@@H]1O [Ribostamycin sulfate salt] | 1.08 ± 0.018 | 0.981 ± 0.069 |
| Cc1ccc(C(=O)c2cc(O)c(O)c([N+](=O)[O-])c2)cc1 [Tolcapone] | 0.967 ± 0.036 | 1.08 ± 0.036 |
| COc1ccc2[nH]cc(CCNC(C)=O)c2c1 [Melatonin] | 1.16 ± 0.068 | 1 ± 0.058 |
| COc1nc(C)nc(Cl)c1NC1=NCCN1 [Moxonidine] | 1.02 ± 0.027 | 0.852 ± 0.089 |
| COc1cc2nc(N3CCN(C(=O)c4ccco4)CC3)nc(N)c2cc1OC [Prazosin hydrochloride] | 1.05 ± 0.048 | 1.01 ± 0.026 |
| CCn1cc(C(=O)O)c(=O)c2cnc(N3CCNCC3)nc21 [Pipemidic acid] | 1.09 ± 0.041 | 1.04 ± 0.047 |
| Cc1ccc(S(=O)(=O)NC(=O)NN2CC3CCCC3C2)cc1 (stereo not drawn) [Gliclazide] | 1.04 ± 0.049 | 0.979 ± 0.091 |
| CC(=O)N[C@@H](CC(=O)N[C@@H](CCC(=O)O)C(=O)O)C(=O)O [Spaglumic acid] | 1.08 ± 0.02 | 1.01 ± 0.044 |
| COc1ccc2cc(CCC(C)=O)ccc2c1 [Nabumetone] | 1.04 ± 0.042 | 0.995 ± 0.013 |
| CCn1cc(C(=O)O)c(=O)c2ccc(C)nc21 [Nalidixic acid sodium salt] | 1.06 ± 0.018 | 1.02 ± 0.025 |
| C#CCN(C)Cc1ccccc1 [Pargyline hydrochloride] | 0.974 ± 0.053 | 1.02 ± 0.052 |
| CCN(CC)CCNC(=O)c1cc(S(C)(=O)=O)ccc1OC [Tiapride hydrochloride] | 1.02 ± 0.063 | 0.933 ± 0.035 |
| O=C(CCCN1CC=C(n2c(=O)[nH]c3ccccc32)CC1)c1ccc(F)cc1 [Droperidol] | 1.06 ± 0.023 | 1.06 ± 0.018 |
| Cn1nnnc1SCC1=C(C(=O)O)N2C(=O)[C@@H](NC(=O)[C@H](O)c3ccccc3)[C@H]2SC1 [Cefamandole sodium salt] | 1.16 ± 0.13 | 1 ± 0.015 |
